The values below come from publication PMC10154422.

These are yes or no findings as the source states them, for the method shown. In cells and extracts the contact can be indirect. Some entries that bind do so weakly or less than the wild type.

The target of assay [1] is KIFC1 in HEK293T cells (human (endogenous in HEK293T)) (UniProt Q9BW19). Put plainly: co-IP; IP of KIFC1 and immunoblotting with GFP antibody in mitotic HEK293T cells transfected with GFP-labelled TACC3 vectors (Fig. 3O).
For assay [2], the target named is MBD2 in HEK293T cells (human (endogenous in HEK293T)) (UniProt Q9UBB5). The assay is described as follows: co-IP; IP of HDAC2 or MBD2 and immunoblotting with GFP antibody in HEK293T cells transfected with GFP-labelled TACC3 vectors (Fig. 5K).
Assay [3] concerns the target HDAC2 in HEK293T cells (human (endogenous in HEK293T)) (UniProt Q92769). The assay is described as above.
In assay [4] the target is Transforming Acidic Coiled-Coil Containing Protein 3 (TACC3), endogenous (human (endogenous in JIMT-1)) (UniProt Q9Y6A5). The assay is described as follows: co-IP; IP of endogenous TACC3 in JIMT-1 cells synchronized at interphase (G1), untreated or treated with BO-264 (5 µM) for 4 h (Fig. 5J).
Assay [5] has as its target APEX2-TACC3 (UniProt Q9Y6A5). The assay is described as follows: co-IP; TACC3 pulldown (IP) in APEX2-TACC3 overexpressing JIMT-1 cells synchronized at interphase (G1, double thymidine block) (Fig. 5H).
Assay [6] addresses Transforming Acidic Coiled-Coil Containing Protein 3 (TACC3), endogenous (human (endogenous in JIMT-1)) (UniProt Q9Y6A5). Put plainly: co-IP; IP of endogenous TACC3 in JIMT-1 cells synchronized at mitosis, untreated (Fig. 3I).
The target is the same in assay [7]. The assay is described as follows: condition: only cells treated with BO-264 (5 µM) for 4 h; co-IP; IP of endogenous TACC3 in JIMT-1 cells synchronized at mitosis and treated with BO-264 for 4 h (5 µM) (Fig. 3I).
In assay [8] the target is APEX2-TACC3 (UniProt Q9Y6A5). The assay is described as follows: co-IP; TACC3 pulldown (IP) in APEX2-TACC3 overexpressing JIMT-1 cells synchronized at interphase (G1, double thymidine block) (Fig. 5H). This is another data set of the same source.
In assay [9] the target is APEX2-TACC3 (UniProt Q9Y6A5). The assay is described as follows: co-IP; IP of TACC3 in APEX2-TACC3 overexpressing mitotic JIMT-1 cells, Western blotting of partners (Fig. 3H).
Assay [10] addresses Transforming Acidic Coiled-Coil Containing Protein 3 (TACC3), endogenous (human (endogenous in JIMT-1)) (UniProt Q9Y6A5). Put plainly: co-IP; IP of endogenous TACC3 in JIMT-1 cells synchronized at interphase (G1), untreated or treated with BO-264 (5 µM) for 4 h (Fig. 5J). This is another data set of the same source.

For “GFP-labelled C-terminal region of TACC3 (594-838 aa) (from UniProt Q9Y6A5 594-838) (domain or fragment)”, the binding result in assay [1], in assay [2] and in [3] was “binds” throughout.

Consider “MBD2, endogenous in JIMT-1 (from UniProt Q9UBB5 1-411)”, for which the binding result in [4] and in [5] was “binds” throughout.

B1: Kinesin Family Member C1 (KIFC1), endogenous in JIMT-1 (protein, UniProt Q9BW19 1-673)
chain: MDPQRSPLLEVKGNIELKRPLIKAPSQLPLSGSRLKRRPDQMEDGLEPEKKRTRGLGATTKITTSHPRVPSLTTVPQTQGQTTAQKVSKKTGPRCSTAIATGLKNQKPVPAVPVQKSGTSGVPPMAGGKKPSKRPAWDLKGQLCDLNAELKRCRERTQTLDQENQQLQDQLRDAQQQVKALGTERTTLEGHLAKVQAQAEQGQQELKNLRACVLELEERLSTQEGLVQELQKKQVELQEERRGLMSQLEEKERRLQTSEAALSSSQAEVASLRQETVAQAALLTEREERLHGLEMERRRLHNQLQELKGNIRVFCRVRPVLPGEPTPPPGLLLFPSGPGGPSDPPTRLSLSRSDERRGTLSGAPAPPTRHDFSFDRVFPPGSGQDEVFEEIAMLVQSALDGYPVCIFAYGQTGSGKTFTMEGGPGGDPQLEGLIPRALRHLFSVAQELSGQGWTYSFVASYVEIYNETVRDLLATGTRKGQGGECEIRRAGPGSEELTVTNARYVPVSCEKEVDALLHLARQNRAVARTAQNERSSRSHSVFQLQISGEHSSRGLQCGAPLSLVDLAGSERLDPGLALGPGERERLRETQAINSSLSTLGLVIMALSNKESHVPYRNSKLTYLLQNSLGGSAKMLMFVNISPLEENVSESLNSLRFASKVNQCVIGTAQANRK
Take B1: the binding entry in assay [6] is recorded as “binds”; in assay [7] it was “no binding”; in assay [8] it was “binds weakly”; in [9], “binds”; in [10], “binds weakly”.
